The values below come from the RNAGym collection of RNA variant scans (doi:10.1093/nar/gkz1192).

The source gives no read counts; variants with many changes may rest on few reads.

B1: CPEB3 Ribozyme (parent)
chain: UAACAGGGGGCCACAGCAGAAGCGUUCACGUCGCAGCCCCUGUCAGAUUCUGGUGAAUCUGCGAAUUCUGCUGUAUAUCUC

In the data set the parent is B1. As to the kind of experiment: self-cleavage, relative activity (ratio to wild type); higher = more cleavage; in vitro, sequencing. The essentials:
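For each CPEB3 ribozyme variant, relative activity is its cleaved/total read fraction divided by the unmutated ribozyme's. Barcoded error-prone PCR libraries were transcribed by T7 RNA polymerase (5 hours, 37°C) and held in DNase I for 15 min before an EDTA stop, with cleavage occurring throughout. Template-switching reverse transcription and Illumina sequencing were used to read the RNAs. A 5-read minimum applied, and results are the mean of three batches.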
As for C11A A18G U25A U41G, the self-cleavage was found to be 0.25.
C11A A15G G63U U72C: the self-cleavage was found to be 0.69.
As to G10A A35G C44U, the self-cleavage is 0.21.
To C11A U51G A56G belongs 0.28; to G10C A21G C29U A65U U78C, 0.05; to G10A U43C U60A C62U A65G U74A, 0.1.
To G10U U26C U49C belongs 0.19; to G10U U51C U60C C68G, 0.05.
For G10A G52C G73A A77G, the self-cleavage was found to be 0.51.
For the variant C11A A18U U25C G36A, the self-cleavage amounted to 0.05.
To G10A A21G U41A A47U U51A A64G U78C belongs 0.04.
To G10C A18G A45C belongs 0.26; to C11A A15G U31C U60C, 0.05.
For G10A A35C U80C, the self-cleavage amounted to 0.14.
In the case of G10A A28U A47G U76A, the self-cleavage was determined as 0.09.
The value for G10U A45U U60G C71A was 0.11; that for G10A U43A A57G was 0.09.
The value for C11A C38G U58C U69A U74G was 0; that for G10U A13U A35G U43A was 0.47.
The value for C11A U31C A65G U72A U78C was 0.04.
As to G10A U49A A65G U74C, the self-cleavage came to 0.06.
To G10A A21G A28U U41G U51A A57U U69A belongs 0.13; to C11A U25C U26A C71G, 0.06; to G10A C14U A20G U51C G52A, 0.07.
In the case of G10A U41G U51C, the self-cleavage was found to be 0.31.
For the variant C11A A28G U31C, the self-cleavage was found to be 0.07.
The value for C11A A20G A35G A56U was 0.08; that for G10A A21G U69C U72C was 0.16; that for G10C A56G U69C was 0.13.
As to G10U C14U G19U A28G G42A U58C, the self-cleavage was found to be 0.11.
With G10C A20U A21G C37G, the self-cleavage is 0.14.
For C11A A21G U25C C40U A65G, the self-cleavage amounted to 0.05.
For G10A U51A A56G A57U, the self-cleavage is 0.11.
In the case of G10C A20U U25A U41A, the self-cleavage was 0.06.
In the case of G10A C68A G70C, the self-cleavage was determined as 0.05.
Turning to G10A U60A G73A A75G, the self-cleavage is 0.34.
The value for C11A C37A C39A A64G U78C was 0.03.
To G10C C38A A45G A56G belongs 0.07.
For the variant G10U U25C U31C U41A U48A U49C, the self-cleavage was 0.05.
For C11A U26C U41G U49C A64G, the self-cleavage was 0.05.
Regarding G10C U31C U54C U60C U66C U69C A77G, the self-cleavage is 0.08.
Take C11A U41A A45U U51A U60C: the self-cleavage is 0.03.
On to G10A A45C G53A A56G U69C, for which the self-cleavage came out at 0.1.
For G10C U48C A65G, the self-cleavage is 0.14.
Turning to G10U A28G U31A U80A, the self-cleavage was 0.05.
G10A G19A U31A A45G U72C C79U: the self-cleavage is 0.02.
As for C11A U26A A35G, the self-cleavage stood at 0.61.
Consider G10A C39A G63A, for which the self-cleavage was 0.04.
For the variant G10C U51G A64G, the self-cleavage is 0.16.
To G10U G30A A35G G55C U58A C71U U80A belongs 0.03.
To G10A C27U A28G A56G C71A belongs 0.08; to G10A C12A U25C U67A, 0.31.
To G10C A15U A35G belongs 0.23.
For G10A U41A A47U A65G, the self-cleavage stood at 0.04.
With G10C A21G G30A C37A U49C, the self-cleavage stood at 0.04.
To C11A A28C U31A U60C U76C belongs 0.04; to G10U A57G A64G, 0.48.
The value for G10C C34U A35G U43A U51A was 0.34; that for G10U C11U U48C was 0.34; that for G10U C17U C32A A57G U69C U76C was 0.03.
To G10A U41C U67C A77U belongs 0.18; to G10A G52C G73A, 0.45.
As for C11A A28G U60A U69A C79U, the self-cleavage was found to be 0.22.
To C11A A28G G63A A64C A77U U78A belongs 0.07; to G10A U31C A47G U60A A64G U72A U76C, 0.06.
For the variant G10A U25C G53C, the self-cleavage turned out to be 0.24.
G10U U25C U74C: the self-cleavage was determined as 0.45.
To G10C A18U U31C A47G A65G G70U U72A belongs 0.03; to G10U U41C A56G G63A U72A, 0.12; to G10U A15G C29U U69C, 0.06.
The value for G10A C32U G52A U54C U80C was 0.35.
With G10C U26A U31A G33A C34G A35C U41C, the self-cleavage is 0.05.
The value for C11A A28G U43A A75U was 0.12.
Take G10A U25A A65G U69C: the self-cleavage stood at 0.04.
To G10C A56G A64G U72C belongs 0.17; to C11A A13G G24A G33A A47U A57G U80A, 0.04; to G10A A56U U67C, 0.06.
The value for G10C U54A U78A was 0.3; that for G10A A21G A28G was 0.08; that for G10U U41C U54A U69A U76C U80C was 0.05.
To G10A A21G A35C U48C G52C belongs 0.11; to G10A C29G A64U C79U, 0.05.
C11A A15U A20G A35U U66C A75G: the self-cleavage amounted to 0.08.
